Screen size: about 280,000 compounds; about 100 (0.036%) were called active. The shares of active, inactive and inconclusive entries below differ from those in the screen. Calls come from the whole dose curve; as a rule, active = well fitted inhibition curve with a large enough effect in the signal ratio, with a control signal flat (not every such curve was filed as active); inconclusive = small, poorly fitted or top-dose-only effect, or effect the other way, or a change in a side signal; inactive = no such curve, though single readings can be large or run the other way; the % refers to the signal ratio. Potencies beside an inconclusive call are fits to weak or partial responses and may not hold up. A note “side channel” means that the fit belongs to a control or component signal, not to the main read-out.
The compounds below were run against Muscleblind-like protein 1 (Homo sapiens) (UniProt Q9NR56) (assay: qHTS Assay for Inhibitors of MBNL1-poly(CUG) RNA binding). Conditions: TR-FRET MBNL1-His/biotin-(CUG)12 binding, 665/545 ratio; activity change, negative = inhibition: at 57.5 µM (top of the series).
Chain of UniProt Q9NR56 (Q9NR56 whole entry, looked up): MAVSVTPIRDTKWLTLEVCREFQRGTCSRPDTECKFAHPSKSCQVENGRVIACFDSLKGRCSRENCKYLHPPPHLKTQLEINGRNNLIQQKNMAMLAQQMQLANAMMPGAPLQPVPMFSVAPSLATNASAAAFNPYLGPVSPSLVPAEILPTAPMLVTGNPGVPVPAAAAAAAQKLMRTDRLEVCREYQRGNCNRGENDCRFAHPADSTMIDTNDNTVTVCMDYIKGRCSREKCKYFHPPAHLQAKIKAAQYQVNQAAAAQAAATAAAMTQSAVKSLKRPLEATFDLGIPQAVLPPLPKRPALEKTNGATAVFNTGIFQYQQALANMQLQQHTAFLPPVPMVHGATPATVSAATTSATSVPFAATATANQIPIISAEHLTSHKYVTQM
Method in brief: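 Compounds (final 92 nM to 58 uM) are added to His-tagged MBNL1 and biotin-(CUG)12, then terbium anti-His antibody and streptavidin-XL665 (5 nM final). After 60 min at room temperature, the 665/545 nm ratio is read.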
% is set by controls: 0 for no effect and ±100 for the full control effect; potency is the fitted concentration of half-maximal effect; tags give direction and shape of the fitted curve or compound fluorescence and quenching.

Row | Compound | Potency | activity change, negative = inhibition
1 | O=C(NCc1ccco1)C1CCN(C(=O)c2ccc([N+](=O)[O-])cc2)CC1 | inconclusive: 7.94 µM [quencher, full curve] | 
2 | COc1ccc(NC(=O)CN2CCN(CC(=O)Nc3ccc4c(c3)OCO4)CC2)cc1 |  | inactive: -6.72%
3 | COC(=O)c1nnn(-c2nonc2N)c1CSc1nc2ccccc2s1 |  | inactive: 9.21%
4 | N#C/C(=C/c1cc[nH]c1)C(N)=S | inconclusive: 22.4 µM [quencher, side channel, partial curve] | 
5 | CC(=O)Nc1ccccc1-c1nc2cc(C#N)c(C#N)cc2[nH]c1=O | inconclusive: 15.8 µM [quencher, side channel, partial curve] | 
6 | CC(C)c1ccc(NC(=O)C(c2ccccc2)N2CC(=O)Nc3ccccc32)cc1 (centres undefined) |  | inactive: -21.9%
7 | Cc1cc(C)c(C#N)c(SCC(=O)c2ccccc2)n1 | inconclusive: 31.6 µM [quencher, side channel, partial curve] | 
8 | O=C(NCc1ccc2c3c(cccc13)C(=O)N2)c1cccs1 | inconclusive: 10 µM [quencher, side channel, partial curve] | 
9 | O=C(Nc1ccc(O)c(-c2nc3ccccc3s2)c1)C1=COCCO1 | inconclusive: 35.5 µM [fluorescent, side channel, partial curve] | 
10 | CC(C)Cn1nc(NS(=O)(=O)c2cccc3nonc23)c2cc3ccccc3nc21 | inconclusive: 31.6 µM [quencher, single point] | 
11 | O=C(C1CCCO1)N1CCN(S(=O)(=O)c2cccc3nsnc23)CC1 (centres undefined) | inconclusive: 14.1 µM [quencher, side channel, partial curve] | 
12 | O=[N+]([O-])c1cccc(NNS(=O)(=O)c2ccccc2F)c1 | inconclusive: 22.4 µM [quencher, side channel, partial curve] | 
13 | CN1CCN(S(=O)(=O)c2cc([N+](=O)[O-])ccc2Cl)CC1 | inconclusive: 14.1 µM [quencher, side channel, partial curve] | 
14 | C[C@@H]1C=CC(=O)O[C@@H]1c1ccc(Cl)cc1 |  | inactive: -3.28%
15 | CN1CCN(c2ccc([N+](=O)[O-])cc2C(=O)N2CCCCC2)CC1 | inconclusive: 4.47 µM [quencher, side channel, partial curve] | 
16 | Cn1c(SCc2ccccc2Cl)nc2c1c(=O)[nH]c(=O)n2C |  | inactive: -5.02%
17 | O=C(/C=C\c1ccco1)Nc1nc(-c2ccc3ccccc3c2)cs1 |  | inactive: 9.86%
18 | COc1cc(Nc2c3ccccc3nc3ccccc23)cc(OC)c1OC | inconclusive: 14.1 µM [quencher, side channel, partial curve] | 
19 | CCCCC[n+]1ccn(C2=C([O-])c3ccccc3C(=O)/C2=N\S(=O)(=O)c2ccc(Br)cc2)c1 | inconclusive: 1 µM [quencher, side channel, full curve] | 
20 | O=C(CCN1C(=O)C2C3CCC(C3)C2C1=O)Nc1ccc([N+](=O)[O-])cc1 (centres undefined) | inconclusive: 20 µM [quencher, side channel, partial curve] | 

Row | Compound | Potency | activity change, negative = inhibition
21 | O=C(CN1CCN(Cc2ccccc2)CC1)Nc1ccc2c(c1)CCC2 |  | inactive: 0.427%
22 | CSc1ccc(/C=C/C(=O)OCC(=O)NC(C)C)cc1 | inconclusive: 8.91 µM [quencher, side channel, partial curve] | 
23 | O=[N+]([O-])c1cncc([N+](=O)[O-])c1Nc1cccc(O)c1 | inconclusive: 3.55 µM [quencher, side channel, partial curve] | 
24 | Cn1nc([N+](=O)[O-])nc1Oc1ccccc1C(=O)N1CCOCC1 | inconclusive: 28.2 µM [quencher, side channel, partial curve] | 
25 | O=C(CSc1nc2ccccc2o1)N1CCN(C(=O)c2ccco2)CC1 | inconclusive: 39.8 µM [quencher, side channel, single point] | 
26 | CC1(C)Oc2ccc3ccc(=O)oc3c2/C(=C/NNC(N)=O)C1=O | inconclusive: 17.8 µM [quencher, side channel, partial curve] | 
27 | O=C(O)C(Cc1ccccc1)Nc1ccc([N+](=O)[O-])cc1[N+](=O)[O-] (centres undefined) | inconclusive: 11.2 µM [quencher, side channel, partial curve] | 
28 | CC(=O)Nc1ccccc1-c1nc2ccc(C(=O)N3CCN(c4cccc(C)c4)C(C)C3)cc2[nH]c1=O (centres undefined) | inconclusive: 31.6 µM [quencher, side channel, single point] | 
29 | O=C(N/N=C/c1ccco1)c1ccc(C(=O)N/N=C/c2ccco2)o1 | inconclusive: 14.1 µM [quencher, side channel, partial curve] | 
30 | CC(=O)c1cccc(Nc2nc(-c3cccc([N+](=O)[O-])c3)cs2)c1 | inconclusive: 25.1 µM [quencher, side channel, single point] | 
31 | COc1cc(NCCCC(C)N)c2ncccc2c1 (centres undefined) | inconclusive: 3.98 µM [quencher, side channel, full curve] | 
32 | O=C(/C=C/c1ccccc1[N+](=O)[O-])N1CCOCC1 | inconclusive: 20 µM [quencher, side channel, partial curve, poor fit] | 
33 | O=C1C(Nc2ccccc2)=C(N2CCCCC2)C(=O)c2ccccc21 | inconclusive: 15.8 µM [quencher, side channel, partial curve] | 
34 | Cc1noc(NS(=O)(=O)c2ccc(NC(=O)CSc3nc4ccccc4[nH]3)cc2)c1C |  | inactive: -11.9%
35 | Cc1cc([N+](=O)[O-])ccc1NC(=S)NC(=O)Cc1ccccc1 | inconclusive: 31.6 µM [quencher, side channel, single point] | 
36 | CC1CCN(C2(O)C(=O)Nc3ccc([N+](=O)[O-])cc32)CC1 (centres undefined) | inconclusive: 17.8 µM [quencher, side channel, partial curve] | 
37 | CC1(C)OC(C)(C)/C(=C/Nc2ccc(O)cc2)C1=O | inconclusive: 8.91 µM [quencher, side channel, partial curve] | 
38 | Cc1cc(NC(=O)c2c([N+](=O)[O-])cnn2C)no1 | inconclusive: 20 µM [quencher, side channel, partial curve] | 
39 | O=C(CSc1nnc(Cc2ccccc2)n1-c1ccccc1)NNC(=O)Cc1ccccc1 |  | inactive: 4.29%
40 | Clc1cccc(CN2C3=NCCCN3c3ccccc32)c1 | inconclusive: 39.8 µM [quencher, side channel, single point] | 

Row | Compound | Potency | activity change, negative = inhibition
41 | O=C(Cc1cc(=O)[nH]c(=O)[nH]1)NCc1ccccc1 | inconclusive: 100 µM [inhibitor, single point] | 
42 | O=[N+]([O-])c1cccc(COc2ncnc3cc([N+](=O)[O-])ccc23)c1 | inconclusive: 8.91 µM [quencher, side channel, partial curve] | 
43 | COc1cc(CNCCCN2CCOCC2)cc(Br)c1OCC(=O)N1CCCCC1 | inconclusive: 63.1 µM [inhibitor, partial curve] | 
44 | O=S1(=O)Nc2c(ccc3cccnc23)-c2ccccc21 | inconclusive: 25.1 µM [quencher, side channel, single point] | 
45 | Oc1[nH]c2ccccc2c1N=NC(=S)NCC1CCCO1 (centres undefined) | inconclusive: 20 µM [quencher, side channel, partial curve, poor fit] | 
46 | C/C(=N\Nc1ccc([N+](=O)[O-])cc1)c1cccc(N)c1 | inconclusive: 15.8 µM [quencher, partial curve] | 
47 | COc1cc([N+](=O)[O-])ccc1NC(=O)CN1CCCC1 | inconclusive: 25.1 µM [quencher, side channel, partial curve] | 
48 | O=C(N/N=C/C=C/c1ccc2c(c1)OCO2)C(O)c1ccccc1 (centres undefined) | inconclusive: 22.4 µM [quencher, side channel, partial curve] | 
49 | Cc1c(NC(=S)NC(=O)C(C)(C)C)c(=O)n(-c2ccccc2)n1C | inconclusive: 7.08 µM [quencher, side channel, single point] | 
50 | CCOc1c2ccc(C(=O)NCCc3cccs3)cc2nn1CC | inconclusive: 15.8 µM [quencher, side channel, partial curve] | 
51 | CC(CNC(=O)c1cccs1)c1ccc([N+](=O)[O-])cc1 (centres undefined) | inconclusive: 39.8 µM [quencher, side channel, single point] | 
52 | O=C(/C=C/c1ccccc1[N+](=O)[O-])N1CCc2ccccc2C1 | inconclusive: 12.6 µM [quencher, side channel, partial curve] | 
53 | CCn1c(O)c(N=NC(=O)CNC(=O)c2ccco2)c2ccccc21 | inconclusive: 12.6 µM [quencher, side channel, partial curve] | 
54 | CCN(CC)c1ccc2cc(-c3nc4ccccc4[nH]3)c(=O)oc2c1 | inconclusive: 7.08 µM [quencher, side channel, single point] | 
55 | COc1cccc(/C=N/NC(=O)CN2CC(c3ccccc3)CC2=O)c1O (centres undefined) |  | inactive: 4.04%
56 | C=CCC1NS(=O)(=O)OC2CCCC12 (centres undefined) |  | inactive: -1.46%
57 | COc1ccc2cc(C#N)c(SCC(=O)Nc3nonc3C)nc2c1 | inconclusive: 39.8 µM [fluorescent, side channel, single point] | 
58 | CCC1CCCCN1C(=O)c1ccc2c(c1)C(=O)N(c1ccc(C)cc1)C2=O (centres undefined) | inconclusive: 31.6 µM [quencher, side channel, partial curve] | 
59 | CC(=O)c1ccc2c(c1)Cc1cc(C(C)=O)ccc1-2 | inconclusive: 5.01 µM [quencher, side channel, full curve] | 
